# In PubChem BioAssay AID504832 (National Center for Advancing Translational Sciences (NCATS), 2011):
# About 18,000 (5.8%) of roughly 310,000 compounds were called active. The inconclusive results got no clear call from the source; some entries with a clear call stand among them for comparison. The call rests on the fitted dose curve; in most records, active means well fitted inhibition curve with a large enough effect; inconclusive means small, poorly fitted or top-dose-only effect, or another doubt; inactive means no such curve, though single readings can be large or run the other way. Potencies of inconclusive entries are left out as doubtful fits.
# Test: Primary qHTS for delayed death inhibitors of the malarial parasite plastid, 48 hour incubation
# Settings: P. falciparum luciferase growth in erythrocytes; series mostly up to 28.7 µM
# Method in brief: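 First compound was added to culture medium, then infected red cells at 0.1% parasitemia and 2% hematocrit (final). After incubation at 37 C under 5% CO2, luciferase detection reagent was dispensed and light output recorded.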
# Potency means the concentration at half of the fitted maximal effect; tags describe the fitted curve by direction and shape.
row,SMILES,Potency
1,COC(=O)c1ccc(-c2nc(CN3CCCN(C(=O)c4ccco4)CC3)c(C)o2)cc1,"inconclusive [inhibitor, partial curve]"
2,O=C(COc1ccc(S(=O)(=O)N2CCOCC2)cc1)NCc1ccccn1,inactive
3,CCN1CCN(c2cc(=O)n3ccccc3n2)CC1,inactive
4,CCOC(=O)c1cccc(N/C=C/C(=O)c2ccc(OC)c(OC)c2)c1,inactive
5,Cc1cc(C(=O)NNC(=O)Cc2ccc(Cl)c(Cl)c2)c(C)o1,"inconclusive [inhibitor, single point]"
6,O=P(O)(CN1CCCCCC1)C1Cc2ccccc2C1,"inconclusive [inhibitor, partial curve, poor fit]"
7,O=C(N/N=C/c1c[nH]c2ccccc12)c1ccccc1O,inactive
8,Cc1cc(C)c2c(N)c(C(=O)c3ccc(Cl)cc3)sc2n1,"inconclusive [inhibitor, single point]"
9,COc1cc(C2C3=C(CCCC3=O)Nc3[nH]n(-c4ccccc4)c(=O)c32)ccc1O (stereo not drawn),active: 5.22 µM
10,N#CC1=C(SCC(=O)c2ccc(Cl)cc2)NC2=C(C(=O)CCC2)C1c1ccco1 (stereo not drawn),"inconclusive [inhibitor, single point]"
11,COc1ccc(NC(=O)CN2CCCN(S(=O)(=O)c3ccc(F)cc3)CC2)c(OC)c1,"inconclusive [inhibitor, single point]"
12,CCCOC(=O)C1=C(C)N(C)C(=O)NC1c1cc2c(cc1Br)OCO2 (stereo not drawn),"inconclusive [inhibitor, partial curve, poor fit]"
13,O=C(NCc1ccccc1)C(c1ccncc1)N(C(=O)c1csnn1)C1CC1 (stereo not drawn),inactive
14,O=C(NCc1nc2ccccc2[nH]1)C1=C[C@H](c2ccc3c(c2)OCO3)C[C@H](OCCCCO)O1,"inconclusive [inhibitor, partial curve, poor fit]"
15,COc1ccc(C(=O)NNc2ccccc2)cc1,inactive
16,COc1ccc(CSc2nc(CSC)cc(N3CCOCC3)n2)cc1,active: 11.7 µM
17,O=C(CCc1ccc(O)cc1)c1c(O)cc(O)cc1O[C@@H]1O[C@H](CO)[C@@H](O)[C@H](O)[C@H]1O,"inconclusive [inhibitor, single point]"
18,Cc1ccc(NC(=O)COc2coc(CN3CCc4ccccc4C3)cc2=O)cc1Cl,"inconclusive [inhibitor, single point]"
19,CN(CC(=O)Nc1c(Cl)cccc1Cl)C(=O)C1CCN(C(=O)Nc2ccccc2)CC1,"inconclusive [inhibitor, single point]"
20,O=C(CCN1C(=O)C2C3C=CC(C3)C2C1=O)N1CCN(c2cccc(Cl)c2)CC1 (stereo not drawn),"inconclusive [inhibitor, partial curve, poor fit]"
21,O=C(NC1CCCC1)c1cc(-c2cccc(Cl)c2)on1,inactive
22,COc1cc(C(=O)Nc2ccc(NC(=O)C(C)C)nc2)cc(OC)c1OC,"inconclusive [inhibitor, partial curve, poor fit]"
23,COCCNc1nnc(SCC(=O)Nc2sc3c(c2C(=O)c2ccccc2)CCCC3)s1,"inconclusive [inhibitor, partial curve, poor fit]"

row,SMILES,Potency
1,O=c1cnnc(Nc2ccc(F)cc2)[nH]1,inactive
2,CCOC(=O)c1cc2c(=O)n3ccccc3nc2n(Cc2ccco2)c1=NC(=O)c1cccnc1,"inconclusive [inhibitor, partial curve, poor fit]"
3,COC(=O)c1nc(NC(=O)C(C)C)n[nH]1,"inconclusive [inhibitor, single point]"
4,Cc1nc(C)c(-c2ccn(S(=O)(=O)c3ccc(Cl)cc3)n2)o1,"inconclusive [inhibitor, single point]"
5,CCOc1ccc(CC(=O)Nc2ccc(-c3ccc4nnc(C)n4n3)cc2)cc1,inactive
6,Cn1c(NC(=O)C[n+]2cc(-c3ccccc3)n3c2CCC3)cc(=O)n(C)c1=O,active: 2.62 µM
7,Cn1c(CNc2nc(-c3ccccc3)cs2)nnc1SCC(=O)N1CCc2ccccc21,"inconclusive [inhibitor, single point]"
8,O=C(O)c1cccc(S(=O)(=O)N2CCCC(c3nc4c(nnn4Cc4ccc(F)cc4)c(=O)[nH]3)C2)c1 (stereo not drawn),inactive
9,CN1N=C(C(=O)N2CCc3c([nH]c4ccccc34)C2c2ccccc2Cl)CCC1=O (stereo not drawn),active: 1.65 µM
10,Cc1ccc(S(=O)(=O)N2CCN(c3ncnc4scc(-c5ccc(F)cc5)c34)CC2)cc1,"inconclusive [inhibitor, partial curve, poor fit]"
11,Nc1c(-c2ccccc2)n[nH]c1-c1ccccc1,inactive
12,COc1ccc(-c2nnn(CC(=O)N(c3cccc(O)c3)C(C)C(=O)NC3CCCC3)n2)cc1OC (stereo not drawn),"inconclusive [inhibitor, single point]"
13,CC(=O)Nc1cc(C)nn1-c1nc2ccccc2s1,inactive
14,Cc1ccccc1NC(=O)C(C)OC(=O)CNS(=O)(=O)c1ccc(C#N)cc1 (stereo not drawn),"inconclusive [inhibitor, single point]"
15,CCOc1ccc(S(=O)(=O)N2CCN(Cc3ccccc3)CC2)cc1,inactive
16,O=C(NCc1ccccc1)NC1(C(=O)N2CCN(c3ccccc3)CC2)CCCCC1,"inconclusive [inhibitor, partial curve, poor fit]"
17,Cc1ccc(SCCCCN2C(=O)NC(C)(C)C2=O)cc1,inactive
18,Nc1nc2n(n1)C(c1cccs1)CC(c1ccccc1)N2 (stereo not drawn),inactive
19,Cc1nc2c(C)[n+](CC(=O)c3ccccc3)ccc2n1C,"inconclusive [inhibitor, partial curve]"
20,COCCOC(=O)C1=C(C)Nc2nc(C)nn2C1c1ccccc1 (stereo not drawn),inactive
21,CCC(C)NC(=O)c1ccccc1NC(=O)c1ccc(CSc2ccc(C)cc2)cc1 (stereo not drawn),"inconclusive [inhibitor, single point]"
22,COC(=O)c1[nH]c2c(c1C(=O)OC)CCc1ccccc1-2,"inconclusive [inhibitor, single point]"
23,CCN(C(=O)c1cc(Cl)ccc1OC)C1CCCCC1,"inconclusive [inhibitor, partial curve, poor fit]"

row,SMILES,Potency
1,COCC(=O)N(Cc1cc2ccccc2[nH]c1=O)c1ccc(OC)cc1,inactive
2,CC(=O)Nc1ccc(OCCC[n+]2ccccc2)cc1,inactive
3,COc1ccc(C(=O)NC(C)c2nnc(SCC(=O)Nc3nc4ccccc4s3)n2C)cc1 (stereo not drawn),"inconclusive [inhibitor, partial curve]"
4,CCc1cc2c(COC(=O)c3cc(S(=O)(=O)N4CCOCC4)ccc3F)cc(=O)oc2cc1O,"inconclusive [inhibitor, single point]"
5,Cc1cccc(N2CCN(S(=O)(=O)c3cc4c(cc3Cl)NC(=O)CO4)CC2)c1C,"inconclusive [inhibitor, single point]"
6,CCOc1ccc(/C=N/NC(=O)CN2CCCCC2)cc1OCC,"inconclusive [inhibitor, single point]"
7,CCC(=O)c1ccc(OCC(O)CN2CCN(c3ccccn3)CC2)cc1 (stereo not drawn),"inconclusive [inhibitor, partial curve]"
8,O=C(CSc1nc2c([nH]c3ccccc32)c(=O)n1-c1ccccc1F)NCC1CCCO1 (stereo not drawn),"inconclusive [inhibitor, single point]"
9,COC(=O)C(Cc1cnc(Cl)s1)(C(=O)OC)c1ccc(C(F)(F)F)cc1[N+](=O)[O-],"inconclusive [inhibitor, partial curve, poor fit]"
10,NC(=O)C1CCN(C(=S)c2ccc(-c3ccc(Br)cc3)o2)CC1,inactive
11,Cc1cc(NC(=O)c2ccc(Cl)c(S(=O)(=O)N3CCOCC3)c2)no1,"inconclusive [inhibitor, partial curve, poor fit]"
12,COc1cc(C#Cc2c(-c3ccccc3OC)oc3ccccc23)cc(OC)c1,"inconclusive [inhibitor, single point]"
13,Cc1ccc(C(=O)NNC(=O)c2csc(N3CCOCC3)n2)s1,inactive
14,COc1cc(/C=C/C(=O)c2ccc(NS(=O)(=O)c3ccc(C)cc3)cc2)ccc1OC(F)F,active: 14.7 µM
15,COc1cccc(C2=CC(c3ccc(N(C)C)cc3)n3ncnc3N2)c1 (stereo not drawn),active: 10.4 µM
16,Cc1nn(Cc2ccc(Cl)cc2)c(C)c1NC(=O)C(c1ccccc1)c1ccccc1,"inconclusive [inhibitor, single point]"
17,CCCn1c(SCC(=O)N2CCCc3ccccc32)nnc1-c1ccccn1,"inconclusive [inhibitor, partial curve]"
18,Cc1nnc(-c2ccccc2)c(=O)n1/N=C/c1c(O)ccc2ccccc12,"inconclusive [inhibitor, partial curve, poor fit]"
19,CCOc1ccccc1N1CCN(Cc2cn[nH]c2-c2ccc(F)cc2)CC1,"inconclusive [inhibitor, single point]"
20,CCOC(=O)Cn1c(CN(Cc2ccccc2)Cc2ccccc2)nc2c1c(=O)[nH]c(=O)n2C,"inconclusive [inhibitor, partial curve, poor fit]"
21,Cc1ccc(C2NC(=S)NC3=C2C(=O)CCC3)cc1 (stereo not drawn),"inconclusive [inhibitor, partial curve, poor fit]"
22,COC(=O)c1sccc1NC(=O)c1cc(OC)c(OC)c(OC)c1,"inconclusive [inhibitor, single point]"
